According to PMC4336329 (PLoS ONE, 2015):
The campaign covered roughly 310,000 compounds. About 2,200 (0.71%) showed an effect of 50% or more. Effects have a minus sign here. The list shows a part of the results.

target: human ether-à-go-go-related gene (hERG) potassium channel (human, UniProt Q12809); experiment: primary screen, population patch clamp on CHO cells stably expressing hERG
Sequence (Q12809 whole entry, looked up): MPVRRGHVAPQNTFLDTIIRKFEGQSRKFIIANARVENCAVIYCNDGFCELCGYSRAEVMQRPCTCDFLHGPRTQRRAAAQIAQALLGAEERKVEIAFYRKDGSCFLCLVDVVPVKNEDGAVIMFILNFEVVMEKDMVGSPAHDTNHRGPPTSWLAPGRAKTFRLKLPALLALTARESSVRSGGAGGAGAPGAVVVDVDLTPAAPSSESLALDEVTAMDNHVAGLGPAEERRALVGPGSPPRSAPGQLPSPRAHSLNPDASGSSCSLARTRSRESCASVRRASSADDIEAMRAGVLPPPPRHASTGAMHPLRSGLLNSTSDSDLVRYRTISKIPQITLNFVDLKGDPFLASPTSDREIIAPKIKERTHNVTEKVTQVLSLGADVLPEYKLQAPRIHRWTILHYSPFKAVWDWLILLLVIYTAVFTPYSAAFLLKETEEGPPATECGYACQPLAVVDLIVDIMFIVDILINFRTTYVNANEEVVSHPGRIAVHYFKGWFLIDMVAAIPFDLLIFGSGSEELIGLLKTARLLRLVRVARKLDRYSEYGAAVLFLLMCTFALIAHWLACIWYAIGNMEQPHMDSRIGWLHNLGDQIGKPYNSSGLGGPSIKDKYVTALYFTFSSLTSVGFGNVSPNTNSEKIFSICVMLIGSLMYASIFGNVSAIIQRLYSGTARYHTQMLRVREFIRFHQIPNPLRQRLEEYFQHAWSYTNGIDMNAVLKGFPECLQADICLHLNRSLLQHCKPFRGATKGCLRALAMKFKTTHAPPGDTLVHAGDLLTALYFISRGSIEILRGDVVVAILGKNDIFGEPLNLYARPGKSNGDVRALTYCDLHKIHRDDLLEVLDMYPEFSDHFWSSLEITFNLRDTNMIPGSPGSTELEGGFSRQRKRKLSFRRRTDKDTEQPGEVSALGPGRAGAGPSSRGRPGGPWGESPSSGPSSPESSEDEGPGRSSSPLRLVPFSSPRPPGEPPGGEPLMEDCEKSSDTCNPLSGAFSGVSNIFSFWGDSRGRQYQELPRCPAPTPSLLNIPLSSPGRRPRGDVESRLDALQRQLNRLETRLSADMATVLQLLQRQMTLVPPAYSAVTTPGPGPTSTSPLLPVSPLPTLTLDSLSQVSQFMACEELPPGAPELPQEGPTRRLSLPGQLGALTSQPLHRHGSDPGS

SMILES	hERG current change (%, negative = inhibition) at 1uM
CCCc1nc2ccccc2c(C(=O)OCC(=O)Nc2cccc(S(=O)(=O)N3CCOCC3)c2)c1CC	10.6%
O=C(NCc1ccco1)c1ccc(COCC(F)(F)C(F)F)cc1	8.05%
CCN(CC)C(=O)Cn1cc(S(=O)(=O)CC(=O)Nc2ccc(F)cc2)c2ccccc21	3.42%
Cc1ccc(S(=O)Cc2ccc(C(=O)N3CCN(C4CCCCC4)CC3)o2)cc1 (stereo not shown)	6.2%
COc1ccc(S(=O)(=O)N2CCN(c3ncccn3)CC2)cc1	-2.83%
CCCOc1ccc(C2Nc3cccc4cccc(c34)N2)cc1	15.7%
CCOC(=O)c1sc(NC(=O)C2CC(=O)N(c3ccc(OC)cc3)C2)nc1C (stereo not shown)	12%
O=S(=O)(NCc1nnc2c(C(F)(F)F)cc(Cl)cn12)c1ccccc1	9.79%
COc1ccc(OCC(O)CN2C(=O)c3ccccc3C2=O)cc1 (stereo not shown)	17.9%
Cc1c(C)c2ccc(OCC(=O)NC(Cc3c[nH]c4ccc(O)cc34)C(=O)O)c(C)c2oc1=O (stereo not shown)	11.8%
Cc1ccc(S(=O)(=O)Nc2cccc(C(=O)NCC(c3ccccc3)N(C)C)c2)cc1F (stereo not shown)	-6.13%
COc1ccc(S(=O)(=O)NC(C)c2ccccc2)cc1C(=O)N1CCCCC1 (stereo not shown)	9.02%
CCCC[C@@H]1CNC(=S)N1CC1CCCCC1	11.5%
CC1(C)Cc2cccc(OCC(=O)OCc3nnc(-c4ccc([N+](=O)[O-])cc4)o3)c2O1	0.342%
CC1=CC(C)(C)Nc2ccc(OC(=O)C(C)N3C(=O)c4ccccc4C3=O)cc21 (stereo not shown)	4.13%
COc1ccc(NC(=O)c2ccco2)cc1NC(=O)c1cccs1	-2.83%
CSc1ccccc1NC(=O)Nc1ccc(F)c(Cl)c1	0.602%
CNC(=S)NNC(=O)c1sccc1OCc1cccc(C(F)(F)F)c1	20.9%
CSc1ccc(C#N)cc1NC(=O)c1ccc(Cl)cc1	9.22%
Clc1ccc(-c2cn3cc(Cl)ccc3n2)cc1	14.1%

SMILES	hERG current change (%, negative = inhibition) at 1uM
O=S1(=O)[C@H]2C[C@@H]3C=C[C@@]2(CN1Cc1ccccc1F)O3	10.3%
COc1ccccc1S(=O)Cc1ccc(C(=O)O)o1 (stereo not shown)	-1.75%
C=CCn1c(SCc2ccc(C#N)cc2)nnc1-c1cccc(OC)c1	-45.5%
CCOc1cccc(CN2CCCC(C(=O)Nc3cccc(-n4cccn4)c3)C2)c1 (stereo not shown)	2.24%
COC(=O)c1ccccc1NC(=O)CSc1ncn[nH]1	11.3%
CCOC(=O)CSc1nnc(NC(=O)NC(C)C)s1	5.58%
CCC(=O)Nc1ccc(C(=O)NNC(=O)Cc2ccccc2)cc1	-1.16%
Cc1ccc(/C=N\NC(=O)/C(=C\Nc2nccc(C)n2)NC(=O)c2ccccc2)cc1	3.8%
O/N=C1\CCCc2oc3c(c21)CCCC3	7%
COc1ccc2cnn(Cc3ccccc3)c(=O)c2c1OC	4.1%
O=C(NNc1c(Cl)cccc1Cl)c1cccs1	4.53%
CCS(=O)(=O)Nc1cccc(C2=NN(C(=O)c3ccco3)C(c3ccco3)C2)c1 (stereo not shown)	10.5%
Cc1c(C)n(-c2ccccc2)c2ncnc(NCCN(C)C)c12	9.82%
Cc1ccc(-c2ccc(/C=N/O)o2)cc1[N+](=O)[O-]	6.04%
COC(=O)C(NNc1ccccc1)(NC(=O)c1cccc(F)c1)C(F)(F)F (stereo not shown)	13.2%
CC(=O)NC(=S)Nc1ccccc1N1CCCCC1	-6.16%
Cc1ccc(N=Nc2c(C)[nH]n(-c3ccccc3)c2=O)cc1	2.6%
O=C(NCC1COc2ccccc2O1)c1ccco1 (stereo not shown)	-0.73%
O=C(C1CC1)N1CCc2cc(Br)cc(S(=O)(=O)N3CCOCC3)c21	5.23%
CC(=O)Nc1ccc(S(=O)(=O)NCCC(=O)OCc2nnc(-c3ccccc3)o2)cc1	3.61%

SMILES	hERG current change (%, negative = inhibition) at 1uM
Cc1ccc(N)cc1S(=O)(=O)N(C)C	13.8%
Cc1nc(C)c(C(=O)OCC(=O)NCc2ccccc2)s1	7.4%
COc1ccccc1-n1cnnc1SCC(=O)Nc1cccc(S(=O)(=O)N2CCCCC2)c1	8.63%
CC(=O)Nc1ccc(S(=O)(=O)n2nc(C)cc2C)cc1	18.9%
CSc1nc(NCC(C)O)c2c3c(sc2n1)CN(C)CC3 (stereo not shown)	-0.315%
Cc1ccc(Cn2nnc3c(=O)[nH]c(C4CCN(S(=O)(=O)c5ccc(C)cc5)CC4)nc32)cc1	2.63%
Cn1nc(OC(=O)Nc2cccc(Cl)c2)cc1C(F)(F)F	9.41%
Cc1ccc(-n2cc(CN(C)Cc3nccn3C)c(-c3cccc(C)c3)n2)cc1	10.8%
Cc1ccccc1OCCn1cc(C(=S)N2CCCC2)c2ccccc21	8.23%
O=C(O)CC1(CC(=O)Nc2ccc(F)cc2F)CCCCC1	8.89%
Cc1cccc(-c2nc(CS(=O)CC(=O)NCCCSC3CCCCC3)c(C)o2)c1 (stereo not shown)	6%
CCC(C)(C)C1CCC2(CC1)NC(=O)N(CC(=O)N(C)Cc1ccc(OC(F)F)cc1)C2=O (stereo not shown)	6.54%
CC(c1ccncc1)C(C)c1ccncc1 (stereo not shown)	11.2%
Cc1noc(C)c1-c1ccc2ncnc(NC(C)c3ccco3)c2c1 (stereo not shown)	13.5%
O=C(c1cc(-c2ccc(O)cc2)on1)N1CCCC1	5.77%
Cc1cc(C(=O)COC(=O)c2n[nH]c(=O)c3ccccc23)c(C)n1C	9.86%
CC(=O)C(C)Oc1cc(C)cc2oc(=O)c(C)c(C)c12 (stereo not shown)	12%
CC(=O)Nc1cccc(C(=O)OCC(=O)NC2CCCCCCC2)c1	3.9%
